# The list shows a part of the results.
# System: HSkMC (human skeletal muscle cells)
# Test: cytotoxicity call (relative viability < 0.9)
# Conditions: 10 µM
row,Compound,cytotoxicity call
1,COc1ccc(S(=O)(=O)Nc2cccc3c2O[C@H](CN(C)S(=O)(=O)c2cccs2)[C@H](C)CN([C@@H](C)CO)C3=O)cc1,inactive
2,C/C=C1\[C@H](O[C@@H]2O[C@H](CO)[C@@H](O)[C@H](O)[C@H]2O)OC=C(C(=O)O)[C@H]1CC(=O)OCCc1ccc(O)cc1,inactive
3,CCN1CC[C@]2(CN(S(C)(=O)=O)CC23CCN(Cc2cnn(C)c2)CC3)C1=O,inactive
4,COC1=C(CC=C(C)C)C(=O)c2ccccc2C1=O,inactive
5,Cc1cc(C(=O)Nc2cccc3c2O[C@H](CN(C)C(=O)NC(C)C)[C@@H](C)CN([C@H](C)CO)C3=O)n(C)n1,inactive
6,C[C@@H]1CN([C@@H](C)CO)C(=O)c2c(c3ccccc3n2C)-c2ccccc2CO[C@H]1CN(C)Cc1ccc(-c2ccccc2)cc1,inactive
7,CCCCC(CC)COc1ccc(-c2nc(-c3ccc(OC)cc3)nc(-c3ccc(OCC(CC)CCCC)cc3O)n2)c(O)c1 (stereo not given),inactive
8,C[C@H]1CN([C@@H](C)CO)C(=O)c2cc(NC(=O)Nc3ccc(C(F)(F)F)cc3)ccc2O[C@@H]1CN(C)CC1CCCCC1,inactive
9,C[C@@H]1CCCCO[C@@H](CN(C)C(=O)NC2CCCCC2)[C@H](C)CN([C@@H](C)CO)C(=O)c2cc(NS(=O)(=O)c3ccccc3)ccc2O1,inactive
10,C[C@@H]1CN([C@@H](C)CO)C(=O)c2cccc(NC(=O)c3cnccn3)c2O[C@@H]1CN(C)C(=O)NC1CCCCC1,inactive
11,Cc1ccc(S(=O)(=O)N(C)C[C@H]2OCCCC[C@@H](C)Oc3ccc(NC(=O)c4ccccc4)cc3C(=O)N([C@@H](C)CO)C[C@H]2C)cc1,inactive
12,O=C([C@H]1[C@H](CO)[C@H]2Cn3c(cccc3=O)[C@H]2N1C(=O)C1CCCC1)N1CCOCC1,inactive
13,C[C@H]1CN([C@@H](C)CO)C(=O)c2cccc(NC(=O)C3CCOCC3)c2O[C@H]1CN(C)Cc1ccc(C(=O)O)cc1,inactive
14,COC(=O)C1=C(C)NC(C)=C(C(=O)OCC(C)C)[C@@H]1c1ccccc1[N+](=O)[O-],inactive
15,C[C@@H]1CN([C@@H](C)CO)C(=O)c2cc(NS(=O)(=O)c3ccccc3)ccc2O[C@@H](C)CCCCO[C@H]1CN(C)S(=O)(=O)c1ccc(Cl)cc1,inactive
16,C[C@@H]1CN([C@H](C)CO)S(=O)(=O)c2ccc(C3=CCCC3)cc2O[C@H]1CN(C)C(=O)c1cnccn1,inactive
17,C[C@@H]1CN([C@H](C)CO)C(=O)c2cccc(NC(=O)CCCCCC(=O)Nc3ccccc3N)c2O[C@@H]1CN(C)Cc1ccc(-c2ccccc2)cc1,inactive
18,COc1ccccc1C#Cc1ccc2c(c1)O[C@H](CN(C)Cc1cncnc1)[C@@H](C)CN([C@H](C)CO)S2(=O)=O,inactive
19,CC(C)NC(=O)N(C)C[C@H]1Oc2c(NS(=O)(=O)c3ccccc3)cccc2C(=O)N([C@@H](C)CO)C[C@H]1C,inactive
20,CSc1ccc(Sc2ccc(SC)cc2)cc1,inactive

row,Compound,cytotoxicity call
1,C[C@H]1CN([C@@H](C)CO)S(=O)(=O)c2ccc(C#CC(C)(C)O)cc2O[C@@H]1CN(C)C(=O)C1CCCCC1,inactive
2,Cc1ccc(S(=O)(=O)N(C)C[C@H]2Oc3ccc(NC(=O)Nc4cccc5ccccc45)cc3CC(=O)N([C@@H](C)CO)C[C@H]2C)cc1,inactive
3,NCCCc1nc2c(s1)CCCC2,inactive
4,COC(=O)CN(C)c1nnc(N)s1,inactive
5,O=c1c(-c2ccc(O)cc2)coc2cc(O[C@@H]3O[C@H](CO)[C@@H](O)[C@H](O)[C@H]3O)ccc12,inactive
6,C[C@@H]1CN([C@H](C)CO)C(=O)Cc2cc(NC(=O)Cc3ccccc3)ccc2O[C@H]1CN(C)Cc1ccc(Oc2ccccc2)cc1,inactive
7,CCn1c(C)cn2c3c(=O)n(CCN4CCOCC4)c(=O)n(C)c3nc12,inactive
8,C[C@@H]1CN([C@@H](C)CO)C(=O)Cc2cc(NS(=O)(=O)c3ccccc3)ccc2O[C@H]1CN(C)S(=O)(=O)c1cn(C)cn1,inactive
9,C[C@H]1CN([C@@H](C)CO)C(=O)Cc2cc(NC(=O)Cn3cnnn3)ccc2O[C@H]1CN(C)Cc1ccc(C(=O)Nc2ccccc2N)cc1,inactive
10,C[C@H]1CN([C@@H](C)CO)C(=O)CCCn2nncc2CO[C@H]1CN(C)S(=O)(=O)c1ccc2ccccc2c1,inactive
11,COc1ccccc1-c1ccc2c(c1)O[C@H](CN(C)CC1CCOCC1)[C@@H](C)CN([C@@H](C)CO)S2(=O)=O,inactive
12,COc1ccc(NC(=O)Nc2cccc3c2O[C@H](CN(C)C(=O)Nc2cccc4ccccc24)[C@H](C)CN([C@H](C)CO)C3=O)cc1,inactive
13,Cc1ccc(NC(=O)c2ccc(CN3CC[C@H](N(C)C)C3)c(C(F)(F)F)c2)cc1Nc1nccc(-c2cncnc2)n1,active
14,C[C@@H]1CCCCO[C@H](CN(C)C(=O)Nc2ccccc2)[C@H](C)CN([C@H](C)CO)C(=O)c2cc(NC(=O)Nc3ccccc3)ccc2O1,inactive
15,Cc1ccc(S(=O)(=O)N(C)C[C@@H]2Oc3c(NS(=O)(=O)c4cn(C)cn4)cccc3C(=O)N([C@H](C)CO)C[C@H]2C)cc1,inactive
16,C[C@@H]1CCCCO[C@H](CN(C)S(=O)(=O)c2ccc(Cl)cc2)[C@H](C)CN([C@H](C)CO)C(=O)c2cc(NC(=O)C3CCCCC3)ccc2O1,inactive
17,C[C@@H]1CN([C@@H](C)CO)S(=O)(=O)c2ccc(C#Cc3ccncc3)cc2O[C@H]1CN(C)C(=O)C1CCCCC1,inactive
18,Cc1ccc(S(=O)(=O)N2C[C@H](O)COC[C@H]3O[C@@H](CC(=O)N[C@H]4CCN(Cc5ccccc5)C4)CC[C@@H]32)cc1,inactive
19,CC(=O)N1CCOC[C@@]2(C1)CN(S(C)(=O)=O)CCO2,inactive
20,COc1cccc(NC(=O)N(C)C[C@H]2OCc3ccccc3-c3c(n(C)c4ccccc34)C(=O)N([C@@H](C)CO)C[C@H]2C)c1,inactive

# — the antibiotic and cytotoxicity screens of Wong et al. (2023)
